{"source": "patent US20260232820A1", "about": "(MEDICENNA THERAPEUTICS, published 2026)", "binders": {"B1": {"name": "Anti-mPD1-MDNA132.15 (1:1 KIH) (other)", "heavy 1": "EVQLQESGPGLVKPSQSLSLTCSVTGYSITSSYRWNWIRKFPGNRLEWMGYINSAGISNYNPSLKRRISITRDTSKNQFFLQVNSVTTEDAATYYCARSDNMGTTPFTYWGQGTLVTVSSASTKGPSVFPLAPSSKSTSGGTAALGCLVKDYFPEPVTVSWNSGALTSGVHTFPAVLQSSGLYSLSSVVTVPSSSLGTQTYICNVNHKPSNTKVDKKVEPKSCDKTHTCPPCPAPELLGGPSVFLFPPKPKDTLMISRTPEVTCVVVDVSHEDPEVKFNWYVDGVEVHNAKTKPREEQYASTYRVVSVLTVLHQDWLNGKEYKCKVSNKALPAPIEKTISKAKGQPREPQVYTLPPCRDELTKNQVSLWCLVKGFYPSDIAVEWESNGQPENNYKTTPPVLDSDGSFFLYSKLTVDKSRWQQGNVFSCSVMHEALHNHYTQKSLSLSPGGGGGSGGGGSGGGGSPGPVPPSTAHRELIRELVNITQNQKAPLCNGSMVWSINLTAGMYCAALESLINVSGCSAIEKTQRMLSGFCPHKVSAGQFSSLHVTGRKIEVAQFVKDLLLHLKKLFKEGQFN", "heavy 2": "EVQLQESGPGLVKPSQSLSLTCSVTGYSITSSYRWNWIRKFPGNRLEWMGYINSAGISNYNPSLKRRISITRDTSKNQFFLQVNSVTTEDAATYYCARSDNMGTTPFTYWGQGTLVTVSSASTKGPSVFPLAPSSKSTSGGTAALGCLVKDYFPEPVTVSWNSGALTSGVHTFPAVLQSSGLYSLSSVVTVPSSSLGTQTYICNVNHKPSNTKVDKKV[letters of human IgG1 Fc with changes not shown]", "light": "DIVMTQGTLPNPVPSGESVSITCRSSKSLLYSDGKTYLNWYLQRPGQSPQLLIYWMSTRASGVSDRFSGSGSGTDFTLKISGVEAEDVGIYYCQQGLEFPTFGGGTKLELKRTVAAPSVFIFPPSDEQLKSGTASVVCLLNNFYPREAKVQWKVDNALQSGNSQESVTEQDSKDSTYSLSSTLTLSKADYEKHKVYACEVTHQGLSSPVTKSFNRGEC"}}, "molecular_target": "T1, mouse PD-1 on Mouse PD-1 T&U Effector Cells (mouse, UniProt Q02242 25-288)", "T1 sequence (looked up)": "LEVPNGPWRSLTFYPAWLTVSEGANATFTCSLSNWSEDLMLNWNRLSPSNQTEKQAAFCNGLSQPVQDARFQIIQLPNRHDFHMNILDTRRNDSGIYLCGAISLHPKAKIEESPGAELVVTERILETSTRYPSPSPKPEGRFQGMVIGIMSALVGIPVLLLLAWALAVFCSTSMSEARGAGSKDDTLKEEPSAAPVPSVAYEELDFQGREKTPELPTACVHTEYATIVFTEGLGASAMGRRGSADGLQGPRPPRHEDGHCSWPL", "experiment": "cell-based or functional assay"}
{"binder": "B1", "values": [{"measurement": "EC50, mouse PD-1/PD-L1 Blockade Bioassay (RLU of NFAT-luciferase reporter against concentration, 4-parameter logistic curve)", "result": 6, "unit": "nM"}]}
